Measurements from PubChem BioAssay (Tox21).
“And” between values parts separate entries of the source, which are not always exact repeats. Equal values may be shown once. This list was built around the results that the source calls inconclusive (neither active nor inactive); the mix of calls is not that of the screen. For some of these results: Potencies of inconclusive entries are left out as doubtful fits. Some structures have more than one record in an assay (separate samples or runs), and their calls can disagree. The source made the active and inactive calls. Unless noted, the call rests on the fitted dose curve; in most records, active means well fitted curve in the direction sought with a large enough effect in the repeat runs; inconclusive means weak or mixed curves; inactive means no such curve, though single readings can be large; an effect the other way counts as inactive or inconclusive.

Experiments:
[1] = qHTS assay for small molecule agonists of the p53 signaling pathway - cell viability (AID 651633; calls by dose curve; further: nearly all actives have a fitted effect of over 30% in size; further: potency means the concentration at half of the fitted maximal effect)
Outline: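 p53RE-bla cells, seeded at 4,000 per well and rested 5 h at 37 C/5% CO2, received compounds in DMSO for 16 h at 37 C. CellTiter-Glo was then added, and luminescence was read after 30 min at room temperature to gauge cytotoxicity.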

[2] = A CellTox Green Cytotoxicity Assay to monitor cytotoxicity in HepG2 cells - 40 hour (AID 1224879); further: on the % scale 0 is the no-effect control and ±100 the full control effect; nearly all actives have a fitted effect of over 40% in size
Outline: (§1)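 Cells and non-lytic dye reagent are dispensed together (600 HepG2 cells/well) and incubated 5 h before DMSO compound transfer. Kinetic fluorescence is then recorded in the same wells during 40 h at 37 C.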

[3] = Caspase-3/7 induction in HepG2 cells by small molecules, qHTS cell viability counter screen (AID 1346981); further: on the % scale 0 is the no-effect control and ±100 the full control effect; nearly all actives have a fitted effect of over 30% in size
Outline: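 Cell viability is measured as a cytotoxicity counter screen alongside the Caspase-Glo 3/7 readout in identical wells. Wild-type HepG2 cells are treated with test compounds for 16 hr at 37 C before CellTiter-Fluor addition and a 1-hr incubation.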

[4] = molecular target: Estrogen receptor (Homo sapiens) (UniProt P03372); assay: qHTS assay to identify small molecule antagonists of the estrogen receptor alpha (ER-alpha) signaling pathway (AID 743069; active means well fitted curve in the direction sought with a large enough effect in the signal ratio in the repeat runs, not every such curve was filed as active; inconclusive means weak or mixed curves, or effect the other way; inactive means no such curve, though single readings can be large or run the other way; the % refers to the signal ratio; further: potency means the concentration at half of the fitted maximal effect; on activity, negative = inhibition: on the % scale 0 is the no-effect control and ±100 the full control effect); settings: HEK293 ER-alpha-UAS-bla, beta-lactamase ratio, antagonist mode; activity, negative = inhibition: at 69.4 µM (top of the series) unless noted
Outline: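 Screening used a UAS-driven beta-lactamase reporter integrated into HEK293 cells expressing ER-alpha, stimulated with 17beta-estradiol alongside test compounds over 18 hr at 37C; signal came from LiveBLAzer B/G FRET fluorescence.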

[5] = Human pregnane X receptor (PXR) small molecule agonists, qHTS cell viability counter screen (AID 1346977); further: nearly all actives have a fitted effect of over 50% in size; further: potency means the concentration at half of the fitted maximal effect
Outline: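 In each well, the PXR reporter HepG2 line was checked for viability: CellTiter-Fluor reagent added 23hr post-dosing, fluorescence read after 1hr incubation at 37C.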

[6] = molecular target: Thyrotropin receptor (Homo sapiens) (UniProt P16473); assay: qHTS assay to identify small molecule agonists of the thyroid stimulating hormone receptor (TSHR) signaling pathway (AID 1224843; calls by dose curve; further: on the % scale 0 is the no-effect control and ±100 the full control effect; nearly all actives have a fitted effect of over 45% in size); settings: TSHR-HEK293 cells, cAMP HTRF, agonist mode, 30 min; activation: at 92.4 µM (top of the series) unless noted
Outline: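 Compounds are titrated over 15 concentrations, in triplicate, onto TSHR-HEK293 cells seeded at 800/well. Plates sit 30 min at room temperature before cAMP-d2 and anti-cAMP cryptate are added; signal is read after a further hour.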

[7] = A CellTox Green Cytotoxicity Assay to monitor cytotoxicity in HepG2 cells - 16 hour (AID 1224876); further: on the % scale 0 is the no-effect control and ±100 the full control effect; nearly all actives have a fitted effect of over 45% in size
Outline: as §1

[8] = molecular target: Androgen receptor (Homo sapiens) (UniProt P10275); assay: qHTS assay to identify small molecule antagonists of the androgen receptor (AR) signaling pathway (AID 743035; active means well fitted inhibition curve with a large enough effect in the signal ratio in the repeat runs, not every such curve was filed as active; inconclusive means weak or mixed curves, or effect the other way; inactive means no such curve, though single readings can be large or run the other way; the % refers to the signal ratio; further: potency means the concentration at half of the fitted maximal effect; on activity change, negative = inhibition: on the % scale 0 is the no-effect control and ±100 the full control effect); settings: HEK293 AR-UAS-bla, R1881-stimulated, beta-lactamase FRET, 16 h; activity change, negative = inhibition: at 58.5 µM (top of the series) unless noted
Outline: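 Steps: seed AR-UAS-bla GripTite HEK293 cells, incubate 4 h at 37C; pin in test compound, then add agonist R1881; incubate 16 h at 37C; add LiveBLAzer B/G FRET substrate, 2 h at room temperature; read fluorescence.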

[9] = qHTS assay for small molecule activators of the heat shock response signaling pathway (AID 743210; active means well fitted activation curve with a large enough effect in the signal ratio in the repeat runs, with a control signal flat, not every such curve was filed as active; inconclusive means weak or mixed curves; the % refers to the signal ratio; further: potency means the concentration at half of the fitted maximal effect); settings: HeLa HSE-bla reporter, beta-lactamase ratio, 5 h; activation: at 62.6 µM (top of the series) unless noted
Outline: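 Activation of heat shock element-controlled beta-lactamase expression is measured in HeLa cells by LiveBLAzer FRET fluorescence, with compound exposure lasting 5 h at 37 C and substrate loading 2.5 h at room temperature.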

[10] = qHTS assay to identify small molecule agonists of the TGF-beta/Smad signaling pathway (AID 1346859; active means well fitted activation curve with a large enough effect in the signal ratio in the repeat runs, not every such curve was filed as active; inconclusive means weak or mixed curves; the % refers to the signal ratio; further: potency means the concentration at half of the fitted maximal effect; on activation: on the % scale 0 is the no-effect control and ±100 the full control effect)
Outline: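 Screening used HEK 293T SBE-bla cells at 4,000/well. Test agents: 5 hr, 37 C. Detection: FRET substrate, 2 hr RT, then excitation 405 nm with emissions at 460 and 530 nm.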

[11] = A CellTox Green Cytotoxicity Assay to monitor cytotoxicity in HEK293 cells - 24 hour (AID 1224875); further: potency means the concentration at half of the fitted maximal effect; nearly all actives have a fitted effect of over 45% in size
Outline: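 Cells (HEK293, 600/well) and dye reagent are dispensed together. After 5 h at 37 C, 23 nL compound is pinned in. Plates stay at 37 C for 40 h with fluorescence read at 0h, 8h, 16h, 24h, 32h and 40h.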

[12] = qHTS assay to identify small molecule antagonists of the retinoid acid receptor (RAR) signaling pathway - cell viability counter screen (AID 1159551); further: nearly all actives have a fitted effect of over 35% in size; further: potency means the concentration at half of the fitted maximal effect
Outline: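 Cells (C3RL4) are plated, incubated overnight, dosed with compound in DMSO, then given retinol at 1 uM final. After 6 h at 37 C, CellTiter-Glo is added and luminescence read following 30 min at room temperature.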

[13] = molecular target: Aryl hydrocarbon receptor (Homo sapiens) (UniProt P35869); assay: qHTS assay to identify small molecule that activate the aryl hydrocarbon receptor (AhR) signaling pathway (AID 743085); further: potency means the concentration at half of the fitted maximal effect; nearly all actives have a fitted effect of over 15% in size
Outline: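 Stably transfected human liver carcinoma cells (HG2L7.5c1; 20 DRE-firefly luciferase) were incubated 5 h, dosed, and kept 24 h at 37C. Agonism was scored from increased luciferase luminescence.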

[14] = qHTS assay to identify small molecule agonists of the vitamin D receptor (VDR) signaling pathway - cell viability counter screen (AID 743224); further: nearly all actives have a fitted effect of over 50% in size; further: potency means the concentration at half of the fitted maximal effect
Outline: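 Cells: VDR-bla, 2,000/well, settled 4 h. Treatment: compounds in DMSO, 16 h, 37C/5% CO2. Readout: CellTiter-Glo luminescence after 30 min RT.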

[15] = qHTS assay to identify small molecule antagonists of the sonic hedgehog signaling (Shh) pathway - cell viability counter screen (AID 1259367); further: nearly all actives have a fitted effect of over 55% in size; further: potency means the concentration at half of the fitted maximal effect
Outline: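 Cytotoxicity was assessed in parallel with Shh reporter activity by measuring live-cell protease fluorescence (CellTiter-Fluor) in NIH/3T3 cells stably carrying Gli1-Luc, treated with compound under conditioned medium stimulation for 23 hr plus 1 hr reagent incubation.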

[16] = qHTS assay to identify small molecule antagonists of the TGF-beta/Smad signaling pathway - cell viability counter screen (AID 1346824); further: potency means the concentration at half of the fitted maximal effect; nearly all actives have a fitted effect of over 50% in size
Outline: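 SBE-bla HEK 293T cells were plated overnight at 37 C, then given compounds in DMSO plus TGF-beta1 (added as 0.25 ng/mL solution) for 5 hr. After the bla read, CellTiter-Glo was added to the same wells and luminescence read after 30 min at room temperature.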

[17] = qHTS assay to identify small molecule antagonists of the thyroid receptor (TR) signaling pathway (AID 743065); further: potency means the concentration at half of the fitted maximal effect; nearly all actives have a fitted effect of over 55% in size
Outline: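 GH3.TRE-Luc rat pituitary cells carrying two TR response elements driving luciferase were plated for 4 h, given compound plus 1 nM T3 (final), and incubated 23.5 h at 37 C. ONE-Glo luminescence measured reporter inhibition; CellTiter-Fluor fluorescence tracked cytotoxicity.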

[18] = molecular target: Glucocorticoid receptor (Homo sapiens) (UniProt P04150); assay: qHTS assay to identify small molecule agonists of the glucocorticoid receptor (GR) signaling pathway (AID 720691; active means well fitted activation curve with a large enough effect in the signal ratio in the repeat runs, not every such curve was filed as active; inconclusive means weak or mixed curves, or effect the other way; inactive means no such curve, though single readings can be large or run the other way; the % refers to the signal ratio; further: on the % scale 0 is the no-effect control and ±100 the full control effect); settings: GR-bla HeLa, beta-lactamase reporter ratio, 18 h; activation: at 62.4 µM (top of the series) unless noted
Outline: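 Steps: seed GR-bla HeLa cells, incubate 4 h at 37 C/5% CO2; pin-transfer DMSO-dissolved compounds; incubate 18 h at 37 C; add LiveBLAzer B/G FRET substrate; after 2 h at room temperature, measure fluorescence.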

[19] = qHTS assay for small molecule agonists of the antioxidant response element (ARE) signaling pathway - cell viability counter screen (AID 743203; calls by dose curve; further: potency means the concentration at half of the fitted maximal effect; nearly all actives have a fitted effect of over 55% in size); settings: ARE-bla HepG2 viability, CellTiter-Glo luminescence, 16 h; viability change, negative = cytotoxic: at 73.3 µM (top of the series)
Outline: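 Cytotoxicity was tested in parallel with the ARE reporter screen. ARE-bla HepG2 cells were exposed to compounds for 16 hrs, and viability was taken from CellTiter-Glo luminescence.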
Tags describe the fitted curve by direction and shape or compound fluorescence and quenching.

Chain of UniProt P10275 (P10275 whole entry, looked up): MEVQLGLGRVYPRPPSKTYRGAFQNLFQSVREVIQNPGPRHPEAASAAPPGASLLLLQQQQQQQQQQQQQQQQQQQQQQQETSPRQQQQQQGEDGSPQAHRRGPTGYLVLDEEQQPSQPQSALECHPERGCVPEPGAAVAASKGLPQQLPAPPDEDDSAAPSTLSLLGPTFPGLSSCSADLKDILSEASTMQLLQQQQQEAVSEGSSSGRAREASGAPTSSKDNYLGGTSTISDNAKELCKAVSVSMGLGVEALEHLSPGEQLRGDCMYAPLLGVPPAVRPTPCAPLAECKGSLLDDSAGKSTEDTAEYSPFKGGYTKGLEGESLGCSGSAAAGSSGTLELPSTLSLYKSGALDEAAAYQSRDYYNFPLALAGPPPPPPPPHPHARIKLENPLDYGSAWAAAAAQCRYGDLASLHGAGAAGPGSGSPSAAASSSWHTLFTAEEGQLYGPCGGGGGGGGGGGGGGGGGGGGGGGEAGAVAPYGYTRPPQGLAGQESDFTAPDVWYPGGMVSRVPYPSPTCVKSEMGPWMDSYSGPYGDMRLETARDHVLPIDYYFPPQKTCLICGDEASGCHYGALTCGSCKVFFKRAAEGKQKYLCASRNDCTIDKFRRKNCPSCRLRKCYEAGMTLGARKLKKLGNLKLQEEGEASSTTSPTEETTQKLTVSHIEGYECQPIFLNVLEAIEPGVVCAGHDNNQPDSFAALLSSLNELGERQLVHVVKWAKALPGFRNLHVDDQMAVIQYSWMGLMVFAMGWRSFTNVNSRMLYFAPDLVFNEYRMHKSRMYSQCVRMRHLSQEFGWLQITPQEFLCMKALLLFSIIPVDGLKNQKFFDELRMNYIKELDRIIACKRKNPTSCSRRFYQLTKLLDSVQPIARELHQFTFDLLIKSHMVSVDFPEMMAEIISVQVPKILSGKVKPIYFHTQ
Chain of UniProt P04150 (P04150 whole entry, looked up): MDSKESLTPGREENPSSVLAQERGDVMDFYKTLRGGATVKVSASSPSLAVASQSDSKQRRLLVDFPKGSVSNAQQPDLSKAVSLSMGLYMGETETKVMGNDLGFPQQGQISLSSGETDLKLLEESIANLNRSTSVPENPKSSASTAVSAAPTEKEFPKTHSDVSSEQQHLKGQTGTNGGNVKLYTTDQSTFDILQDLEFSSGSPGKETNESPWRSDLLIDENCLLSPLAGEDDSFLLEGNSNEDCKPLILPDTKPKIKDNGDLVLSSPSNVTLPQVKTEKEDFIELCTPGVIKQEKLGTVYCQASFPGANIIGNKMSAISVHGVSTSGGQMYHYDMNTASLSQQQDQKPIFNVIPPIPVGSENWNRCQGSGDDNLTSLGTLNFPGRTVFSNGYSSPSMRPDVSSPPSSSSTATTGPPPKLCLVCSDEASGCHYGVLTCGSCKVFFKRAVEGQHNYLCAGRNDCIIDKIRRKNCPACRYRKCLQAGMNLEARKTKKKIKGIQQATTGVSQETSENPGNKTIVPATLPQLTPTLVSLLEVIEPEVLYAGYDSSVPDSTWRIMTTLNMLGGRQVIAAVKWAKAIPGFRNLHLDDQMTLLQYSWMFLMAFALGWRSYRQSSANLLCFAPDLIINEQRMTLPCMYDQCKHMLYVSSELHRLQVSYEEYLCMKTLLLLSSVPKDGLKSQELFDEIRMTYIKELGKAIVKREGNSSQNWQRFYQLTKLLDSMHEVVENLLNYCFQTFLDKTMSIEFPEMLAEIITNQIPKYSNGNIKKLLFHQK
Chain of UniProt P03372 (P03372 whole entry, looked up): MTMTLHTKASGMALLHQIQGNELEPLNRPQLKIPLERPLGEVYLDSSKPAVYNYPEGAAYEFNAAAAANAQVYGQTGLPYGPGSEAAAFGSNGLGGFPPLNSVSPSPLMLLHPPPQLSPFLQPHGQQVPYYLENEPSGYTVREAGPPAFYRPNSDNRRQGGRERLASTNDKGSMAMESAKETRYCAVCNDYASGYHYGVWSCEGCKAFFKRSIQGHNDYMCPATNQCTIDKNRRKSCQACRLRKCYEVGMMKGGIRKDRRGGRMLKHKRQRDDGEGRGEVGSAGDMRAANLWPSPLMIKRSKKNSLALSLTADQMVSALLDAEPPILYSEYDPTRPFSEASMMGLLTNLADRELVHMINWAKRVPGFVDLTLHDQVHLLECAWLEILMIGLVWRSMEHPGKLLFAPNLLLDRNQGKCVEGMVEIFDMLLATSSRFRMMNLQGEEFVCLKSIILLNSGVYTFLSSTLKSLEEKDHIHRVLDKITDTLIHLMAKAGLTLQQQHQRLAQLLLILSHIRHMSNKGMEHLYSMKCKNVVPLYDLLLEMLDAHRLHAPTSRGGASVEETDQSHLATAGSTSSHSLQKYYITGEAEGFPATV
Chain of UniProt P16473 (P16473 whole entry, looked up): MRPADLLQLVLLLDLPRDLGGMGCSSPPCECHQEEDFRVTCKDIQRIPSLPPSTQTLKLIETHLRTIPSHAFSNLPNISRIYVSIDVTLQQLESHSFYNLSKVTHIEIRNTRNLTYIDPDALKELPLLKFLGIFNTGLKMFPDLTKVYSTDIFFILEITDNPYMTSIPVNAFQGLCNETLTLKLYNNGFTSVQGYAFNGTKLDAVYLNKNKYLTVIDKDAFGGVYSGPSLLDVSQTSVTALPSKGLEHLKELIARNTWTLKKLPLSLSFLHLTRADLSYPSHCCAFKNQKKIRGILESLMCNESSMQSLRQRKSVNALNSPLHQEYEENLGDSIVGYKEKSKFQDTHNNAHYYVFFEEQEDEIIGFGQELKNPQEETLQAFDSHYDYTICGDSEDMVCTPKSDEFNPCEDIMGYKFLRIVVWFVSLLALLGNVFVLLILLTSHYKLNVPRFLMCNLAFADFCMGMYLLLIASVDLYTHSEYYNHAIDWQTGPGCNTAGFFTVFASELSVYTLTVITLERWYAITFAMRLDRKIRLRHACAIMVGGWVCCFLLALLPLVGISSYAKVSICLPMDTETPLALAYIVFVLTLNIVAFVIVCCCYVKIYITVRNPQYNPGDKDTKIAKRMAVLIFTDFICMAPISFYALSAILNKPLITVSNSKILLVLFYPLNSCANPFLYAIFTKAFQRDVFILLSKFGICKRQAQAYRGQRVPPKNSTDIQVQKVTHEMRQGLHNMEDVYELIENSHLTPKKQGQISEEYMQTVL
Chain of UniProt P35869 (P35869 whole entry, looked up): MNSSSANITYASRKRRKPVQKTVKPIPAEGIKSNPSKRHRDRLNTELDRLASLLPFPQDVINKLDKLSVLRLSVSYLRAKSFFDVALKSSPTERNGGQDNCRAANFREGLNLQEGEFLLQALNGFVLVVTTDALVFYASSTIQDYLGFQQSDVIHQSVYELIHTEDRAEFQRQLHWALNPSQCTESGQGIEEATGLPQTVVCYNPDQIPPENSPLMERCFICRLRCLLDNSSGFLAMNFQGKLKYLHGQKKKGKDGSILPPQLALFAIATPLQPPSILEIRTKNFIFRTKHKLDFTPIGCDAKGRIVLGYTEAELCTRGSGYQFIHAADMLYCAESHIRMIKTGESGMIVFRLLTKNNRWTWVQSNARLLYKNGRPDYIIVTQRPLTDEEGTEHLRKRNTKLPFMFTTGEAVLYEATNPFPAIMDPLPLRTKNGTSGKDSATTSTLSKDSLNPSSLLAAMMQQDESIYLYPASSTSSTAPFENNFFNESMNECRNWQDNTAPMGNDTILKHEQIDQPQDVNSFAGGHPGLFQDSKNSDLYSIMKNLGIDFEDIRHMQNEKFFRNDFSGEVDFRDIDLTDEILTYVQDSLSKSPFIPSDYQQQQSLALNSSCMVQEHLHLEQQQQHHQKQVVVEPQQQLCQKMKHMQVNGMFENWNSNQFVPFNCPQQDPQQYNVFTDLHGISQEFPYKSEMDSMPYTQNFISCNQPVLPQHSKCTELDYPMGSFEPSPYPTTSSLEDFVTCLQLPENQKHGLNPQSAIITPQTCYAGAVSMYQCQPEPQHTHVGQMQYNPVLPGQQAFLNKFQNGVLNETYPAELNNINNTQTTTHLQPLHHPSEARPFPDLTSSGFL

Compound: CNN
- Potency [1]: inactive
- Potency [2]: inactive

Compound: CCC(C)(C)c1cc(-n2nc3ccccc3n2)c(O)c(C(C)(C)CC)c1
- Potency [3]: inactive

Compound: CN(C)C(=O)Cl
- Potency [4]: inactive
- Potency [5]: inactive

Compound: CC(C)[N+](C)(CCC(C(N)=O)(c1ccccc1)c1ccccc1)C(C)C
- Potency [3]: inactive

Compound: O=C(Cl)c1ccc(Cl)cc1
- Potency [6]: inactive
- Potency [7]: inactive

Compound: COP(=S)(OC)Oc1ccc(S(=O)(=O)N(C)C)cc1
- activity change, negative = inhibition [8]: inconclusive: -57.4%
- activity, negative = inhibition [4]: inconclusive: -31.3%
- Potency [9]: inconclusive [falling, partial curve]

Compound: CC(Oc1cc(Cl)c(Cl)cc1Cl)C(=O)O (stereo unspecified)
- Potency [10]: inactive

Compound: Clc1ccc2ccccc2c1
- Potency [8]: inactive
- Potency [11]: active: 50.5 µM
- Potency [2]: inactive
- Potency [5]: inactive

Compound: NC(=O)c1cc([N+](=O)[O-])cc([N+](=O)[O-])c1
- Potency [12]: inactive
- Potency [5]: inconclusive [cytotoxic, single point]

Compound: CN1COCN(Cc2cnc(Cl)s2)/C1=N\[N+](=O)[O-]
- Potency [13]: inconclusive [activator, partial curve, poor fit]
- Potency [14]: inactive
- Potency [15]: inactive
- Potency [16]: inconclusive [cytotoxic, single point]

Compound: CCN[C@H](C)Cc1cccc(C(F)(F)F)c1
- Potency [17]: inconclusive [inhibitor, partial curve]

Compound: CN[C@@H](C)[C@H](O)c1ccccc1
- Potency [18]: inactive
- Potency [12]: inactive

Compound: CCSC(=O)N(CC)C1CCCCC1
- Potency [9]: inactive
- Potency [12]: inactive

Compound: CC(CC(C(N)=O)(c1ccccc1)c1ccccc1)N(C)C (stereo unspecified)
- Potency [14]: inactive
- Potency [12]: inconclusive [rising, partial curve, poor fit]
- Potency [15]: inconclusive [cytotoxic, partial curve, poor fit]

Compound: Cc1nnc2n1-c1sc(CCC(=O)N3CCOCC3)cc1C(c1ccccc1Cl)=NC2
- Potency [10]: inconclusive [rising, single point]

Compound: CCCOC(=O)c1cncn1C(C)c1ccccc1 (stereo unspecified)
- Potency [12]: inactive

Compound: CCOC(=O)/C=C(C)/C=C/C[C@@H](C)CCCC(C)C
- Potency [1]: inconclusive [cytotoxic, single point]
- Potency [4]: active: 24.5 µM [inhibitor]
- Potency [19]: inconclusive [cytotoxic]
- Potency [9]: inconclusive
- Potency [14]: active: 34.7 µM

Compound: ClC(Cl)C(Cl)(Cl)Cl
- Potency [1]: inactive
- Potency [3]: inactive

Compound: C[C@]12CC[C@H]3[C@@H](CCC4=CC(=O)CC[C@@H]43)[C@@H]1CC[C@@H]2O
- activation [18]: inconclusive: -13.6% and inconclusive: -15.1% and inconclusive: -16.2%
- Potency [19]: inconclusive [cytotoxic, full curve, poor fit]
- Potency [15]: inconclusive [cytotoxic, single point]
- Potency [10]: inconclusive [rising, full curve, poor fit]

Compound: COCC(=O)N(c1c(C)cccc1C)C(C)C(=O)OC (stereo unspecified)
- Potency [5]: inactive

Compound: [O-][Br+2]([O-])O
- Potency [8]: inconclusive [rising, full curve, poor fit]

Compound: CCNP(=S)(OC)O/C(C)=C/C(=O)OC(C)C (stereo unspecified)
- Potency [16]: inconclusive [cytotoxic, single point]
